Assay results from paper PMC4336329 (PLoS ONE, 2015).
Hit rate of the full screen: of about 310,000 compounds, about 2,200 (0.71%) showed an effect of 50% or more. Effects have a minus sign here. Some of the results follow.

Target: human ether-à-go-go-related gene (hERG) potassium channel (human, UniProt Q12809)
Assay: primary screen, population patch clamp on CHO cells stably expressing hERG

Chain of human ether-à-go-go-related gene (hERG) potassium channel (Q12809 whole entry, looked up): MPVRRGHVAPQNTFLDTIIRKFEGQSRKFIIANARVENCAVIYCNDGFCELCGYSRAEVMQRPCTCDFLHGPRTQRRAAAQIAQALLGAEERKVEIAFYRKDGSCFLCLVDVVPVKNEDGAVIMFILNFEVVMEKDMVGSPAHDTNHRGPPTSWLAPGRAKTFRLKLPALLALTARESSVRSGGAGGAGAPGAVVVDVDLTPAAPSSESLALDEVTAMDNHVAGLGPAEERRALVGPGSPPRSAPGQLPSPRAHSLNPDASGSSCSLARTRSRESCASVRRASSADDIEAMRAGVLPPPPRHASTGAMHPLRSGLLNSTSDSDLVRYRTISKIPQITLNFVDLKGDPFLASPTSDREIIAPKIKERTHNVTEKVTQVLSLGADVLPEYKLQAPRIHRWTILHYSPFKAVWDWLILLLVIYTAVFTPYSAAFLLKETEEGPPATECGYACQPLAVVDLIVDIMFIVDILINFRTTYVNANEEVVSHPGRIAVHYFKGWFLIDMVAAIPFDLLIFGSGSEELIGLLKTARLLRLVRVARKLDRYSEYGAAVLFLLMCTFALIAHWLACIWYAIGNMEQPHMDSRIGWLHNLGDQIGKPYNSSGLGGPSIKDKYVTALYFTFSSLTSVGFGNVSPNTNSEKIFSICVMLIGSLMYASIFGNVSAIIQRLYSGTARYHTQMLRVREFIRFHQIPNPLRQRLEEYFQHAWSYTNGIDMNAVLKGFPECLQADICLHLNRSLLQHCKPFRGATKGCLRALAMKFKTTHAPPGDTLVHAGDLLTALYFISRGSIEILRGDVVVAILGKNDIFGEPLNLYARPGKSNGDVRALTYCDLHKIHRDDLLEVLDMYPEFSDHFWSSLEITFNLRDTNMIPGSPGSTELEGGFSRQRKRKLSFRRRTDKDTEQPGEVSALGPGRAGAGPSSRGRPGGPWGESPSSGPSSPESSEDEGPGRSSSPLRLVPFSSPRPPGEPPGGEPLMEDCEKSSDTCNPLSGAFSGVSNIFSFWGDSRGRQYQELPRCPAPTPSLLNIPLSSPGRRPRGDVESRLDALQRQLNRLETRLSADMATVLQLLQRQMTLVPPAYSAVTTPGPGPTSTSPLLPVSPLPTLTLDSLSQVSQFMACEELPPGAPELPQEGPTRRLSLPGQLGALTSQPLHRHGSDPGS

For `COc1ccc(C(=O)N/N=C(\C)c2ccccn2)cc1OC`, which “hERG current change (%, negative = inhibition) at 1uM” value is on record?
The value was 15.7%.

With `N#C/C(=C\c1cccc(OCC(=O)O)c1)c1nc2ccccc2[nH]1` as the compound, how does the “hERG current change (%, negative = inhibition) at 1uM” value read?
The value was 14.8%.

With `CCOC(=O)C1(CCc2ccccc2)CCN(Cc2csc(C(C)=O)c2)CC1` as the compound, how does the “hERG current change (%, negative = inhibition) at 1uM” value read?
Its value is -33.6%.

`C=CCN1C(=O)C2(C(C(=O)c3ccc(C)o3)=C(O)C(=O)N2CCCN2CCOCC2)c2ccccc21` (centres unmarked) was tested. Which “hERG current change (%, negative = inhibition) at 1uM” value did it give?
The value was 11.6%.

`COC(=O)c1ccc(CN(c2ccccc2OC)S(=O)(=O)c2cccs2)o1` was tested. Which “hERG current change (%, negative = inhibition) at 1uM” value did it give?
Its value is -0.741%.

With `NC(=O)c1cc(S(=O)(=O)N2CCCC2)ccc1OCc1ccc(F)cc1` as the compound, how does the “hERG current change (%, negative = inhibition) at 1uM” value read?
The value was 20%.

With `N/C(=N\OC(=O)Nc1cccc(C(F)(F)F)c1)c1ccno1` as the compound, how does the “hERG current change (%, negative = inhibition) at 1uM” value read?
The value was 9.72%.

For `O=C(O)CCN=CC1=C(O)CC(c2ccccc2)CC1=O` (centres unmarked), which “hERG current change (%, negative = inhibition) at 1uM” value is on record?
Its value is 10.6%.

How did the “hERG current change (%, negative = inhibition) at 1uM” value turn out when `C=CCn1c(SCCN2CCCC2)nc2c([nH]c3ccccc32)c1=O` was run?
Its value is -63.9%.

Which “hERG current change (%, negative = inhibition) at 1uM” value does the source give for `CC(=O)c1c(C)nc(-c2ccc(Cl)cc2)nc1NC(=O)C(C)C` here?
The value was 10.5%.

`COc1ccccc1NC(=O)c1cc2cc(Br)ccc2cc1O` was tested. Which “hERG current change (%, negative = inhibition) at 1uM” value did it give?
The value was 17.7%.

`O=C(COC(=O)C1=COCCO1)Nc1ccc([N+](=O)[O-])cc1C(F)(F)F` was tested. Which “hERG current change (%, negative = inhibition) at 1uM” value did it give?
The value was 19.9%.

Which “hERG current change (%, negative = inhibition) at 1uM” value does the source give for `CC1CCc2sc(C(=O)NNS(=O)(=O)c3ccc(F)c(F)c3F)cc2C1` (centres unmarked) here?
Its value is 19.1%.

`Cc1ccc(C(=O)N2CCN(c3ncccn3)CC2)o1` was tested. Which “hERG current change (%, negative = inhibition) at 1uM” value did it give?
The value was 11.9%.

For `CCCC(=O)Nc1ccc(C(=O)NNC(=O)c2cccc([N+](=O)[O-])c2)cc1`, which “hERG current change (%, negative = inhibition) at 1uM” value is on record?
The value was 10.8%.

With `CCCc1cc(C(=O)Nc2cc(C)on2)no1` as the compound, how does the “hERG current change (%, negative = inhibition) at 1uM” value read?
Its value is 18.6%.

For `COc1ccc(C(=O)Cn2nnc(-c3ccccc3NC(=O)C3CCCCC3)n2)cc1`, which “hERG current change (%, negative = inhibition) at 1uM” value is on record?
Its value is 11.9%.

Which “hERG current change (%, negative = inhibition) at 1uM” value does the source give for `CCn1c(SCC(=O)NCC(=O)Nc2ccc(F)cc2)nnc1-c1cccs1` here?
The value was 2.96%.

Which “hERG current change (%, negative = inhibition) at 1uM” value does the source give for `CC(Cl)C(=O)NNc1cccc(Cl)n1` (centres unmarked) here?
Its value is 12.7%.

`Cc1cccc(C)c1OCc1cc(C(=O)N2CCN(Cc3nccn3C)CC2)no1` was tested. Which “hERG current change (%, negative = inhibition) at 1uM” value did it give?
The value was -19.1%.

How did the “hERG current change (%, negative = inhibition) at 1uM” value turn out when `CCOC(=O)c1ccc(NS(=O)(=O)c2ccc(-c3coc(C)n3)cc2)cc1` was run?
Its value is 21.6%.

With `COc1ccc(OC)c(-c2cc(C(=O)NC3CCCC3)c3ccccc3n2)c1` as the compound, how does the “hERG current change (%, negative = inhibition) at 1uM” value read?
Its value is -13.9%.

`Cc1cc(C(=O)NC2Cc3ccccc3C2)c(C)o1` was tested. Which “hERG current change (%, negative = inhibition) at 1uM” value did it give?
Its value is 8.98%.

Which “hERG current change (%, negative = inhibition) at 1uM” value does the source give for `N#C/C(=C(/O)C(Cl)(Cl)Cl)c1nc2ccccc2[nH]1` here?
Its value is 11.3%.

Which “hERG current change (%, negative = inhibition) at 1uM” value does the source give for `Cc1cc(C)n(CC(O)COc2ccccc2)n1` (centres unmarked) here?
The value was 9.07%.

`CCOC(=O)N1CCC(N(CCOC)C(=S)Nc2cccc(SC)c2)CC1` was tested. Which “hERG current change (%, negative = inhibition) at 1uM” value did it give?
The value was 3.27%.

With `O=C(NC1CCCc2ccccc21)c1ccc2c(c1)OCO2` (centres unmarked) as the compound, how does the “hERG current change (%, negative = inhibition) at 1uM” value read?
Its value is 11.9%.

How did the “hERG current change (%, negative = inhibition) at 1uM” value turn out when `CCOC(=O)/C=C/C(=O)Nc1cccc([N+](=O)[O-])c1` was run?
Its value is 3.24%.

How did the “hERG current change (%, negative = inhibition) at 1uM” value turn out when `O=C(O)C1CCCCC1C(=O)Nc1nccs1` (centres unmarked) was run?
Its value is 7.1%.

`CCN(CC)S(=O)(=O)c1cccc(C(=O)NCC(=O)OCC(=O)NCc2ccccc2)c1` was tested. Which “hERG current change (%, negative = inhibition) at 1uM” value did it give?
The value was 6.69%.

For `COc1ccc(C2CC(c3ccc(OC)cc3O)=NN2C(=O)c2ccccc2)cc1` (centres unmarked), which “hERG current change (%, negative = inhibition) at 1uM” value is on record?
Its value is 6.36%.

For `COc1ccc(C2CC(c3cccs3)=NN2C(=O)c2ccc(Br)o2)cc1` (centres unmarked), which “hERG current change (%, negative = inhibition) at 1uM” value is on record?
The value was 13.5%.

How did the “hERG current change (%, negative = inhibition) at 1uM” value turn out when `O=C(Nc1ccc(Cl)cc1C(=O)c1ccccc1)c1ccco1` was run?
The value was 3.75%.

`CCOc1oc(-c2ccc(OC)cc2)nc1C(F)(F)F` was tested. Which “hERG current change (%, negative = inhibition) at 1uM” value did it give?
The value was 2.69%.

How did the “hERG current change (%, negative = inhibition) at 1uM” value turn out when `O=C(CNC(=O)c1ccc(Br)o1)NC12CC3CC(CC(C3)C1)C2` was run?
Its value is 15.5%.

For `COc1ccc(N2CCN(C(=O)CCNS(=O)(=O)c3ccccc3)CC2)cc1`, which “hERG current change (%, negative = inhibition) at 1uM” value is on record?
Its value is 7.07%.

`Cc1ccc(NCN2C(=O)C3C4CCC(C4)C3C2=O)cc1` (centres unmarked) was tested. Which “hERG current change (%, negative = inhibition) at 1uM” value did it give?
Its value is 5.44%.

With `Nc1cc(S(=O)(=O)Nc2ccccc2Cl)ccc1N1CCOCC1` as the compound, how does the “hERG current change (%, negative = inhibition) at 1uM” value read?
Its value is 10.5%.

With `Cc1ccc(S(=O)(=O)N(C)C)cc1NC(=O)C1CCCN(C(=O)c2ccc(Cl)cc2)C1` (centres unmarked) as the compound, how does the “hERG current change (%, negative = inhibition) at 1uM” value read?
The value was 6.71%.

For `O=C(O)C(=O)O.O=S(=O)(c1cccc(Cl)c1Cl)N1CCN(C(=S)NCCCN2CCOCC2)CC1`, which “hERG current change (%, negative = inhibition) at 1uM” value is on record?
The value was 4.1%.

How did the “hERG current change (%, negative = inhibition) at 1uM” value turn out when `CC1Cc2cc(/C(O)=C3/C(=O)C(=O)N(CCN4CCOCC4)C3c3ccc([N+](=O)[O-])cc3)ccc2O1` (centres unmarked) was run?
The value was 1.31%.

Which “hERG current change (%, negative = inhibition) at 1uM” value does the source give for `Cc1cccnc1NC(=O)CNC(=O)c1sc2ccccc2c1Cl` here?
Its value is 14.8%.

Which “hERG current change (%, negative = inhibition) at 1uM” value does the source give for `CCN1CCN(c2ccc(S(=O)(=O)N3CCCCC3)cc2NC(=O)c2cccc(C)c2)CC1` here?
Its value is -6.04%.

With `COc1ccc(S(=O)(=O)Nc2cccc(-n3cnnn3)c2)cc1` as the compound, how does the “hERG current change (%, negative = inhibition) at 1uM” value read?
The value was -0.952%.

For `CCN1CCN(C(=O)CN(C)S(=O)(=O)c2ccc(OC)c(C)c2)CC1`, which “hERG current change (%, negative = inhibition) at 1uM” value is on record?
Its value is -6.54%.

Which “hERG current change (%, negative = inhibition) at 1uM” value does the source give for `COc1ccccc1C1NC(=O)NC(C)=C1C(C)=O` (centres unmarked) here?
The value was -6.11%.

How did the “hERG current change (%, negative = inhibition) at 1uM” value turn out when `Cc1ccccc1-c1nc(S(=O)(=O)c2ccc(Cl)cc2)c(NCCN2CCOCC2)o1` was run?
Its value is -2.32%.

`Nc1cc(=O)[nH]c(SCC(=O)N2CCN(S(=O)(=O)c3ccc4ccccc4c3)CC2)n1` was tested. Which “hERG current change (%, negative = inhibition) at 1uM” value did it give?
The value was 11.5%.

`COc1ccc(OCc2nnc(SCC(=O)N3C(C)CCCC3C)o2)cc1` (centres unmarked) was tested. Which “hERG current change (%, negative = inhibition) at 1uM” value did it give?
The value was 15.8%.

`Cc1cc(C)c(NC(=O)CCN2CCN(Cc3ccccc3)CC2)c(C)c1` was tested. Which “hERG current change (%, negative = inhibition) at 1uM” value did it give?
The value was -2.7%.

With `COc1ccccc1C(=O)Nc1ccc2c(c1)nc1n2CCN(Cc2ccccc2)C1` as the compound, how does the “hERG current change (%, negative = inhibition) at 1uM” value read?
Its value is 8.94%.

How did the “hERG current change (%, negative = inhibition) at 1uM” value turn out when `Cc1ccc(CC(=O)N2CCC(c3nc4c(nnn4Cc4ccccc4)c(=O)[nH]3)CC2)cc1` was run?
Its value is 12%.

Which “hERG current change (%, negative = inhibition) at 1uM” value does the source give for `Cc1cc(C)c(S(=O)(=O)N(C)c2ccccc2)c(C)c1` here?
Its value is 8.08%.

Which “hERG current change (%, negative = inhibition) at 1uM” value does the source give for `NC(=O)NC(=O)CSc1nnc(-c2ccco2)n1Cc1ccccc1` here?
The value was 10.1%.

With `CC(C(=O)Nc1ccccc1C(=O)O)n1c(C(F)(F)F)nc2ccccc21` (centres unmarked) as the compound, how does the “hERG current change (%, negative = inhibition) at 1uM” value read?
Its value is 9.69%.

With `COc1ccccc1CNC(=O)CCNC(=O)Cn1cnc2ccccc2c1=O` as the compound, how does the “hERG current change (%, negative = inhibition) at 1uM” value read?
Its value is 16.7%.
